The campaign covered roughly 110,000 compounds. About 230 (0.21%) showed an effect of 50% or more. This is one part of the list.
Each molecule was assayed against DPAP1 (Plasmodium falciparum, UniProt Q8IIJ9) (assay: primary screen, percent inhibition; read by cleavage of a fluorogenic dipeptide substrate; higher = more effect of the substance).
Parameters: species or system P. falciparum D10 trophozoite lysates; single well
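Note: 30 min substrate incubation versus DMSO and 10 µM JCP410 controls.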

Sequence of DPAP1 (Q8IIJ9 whole entry, looked up): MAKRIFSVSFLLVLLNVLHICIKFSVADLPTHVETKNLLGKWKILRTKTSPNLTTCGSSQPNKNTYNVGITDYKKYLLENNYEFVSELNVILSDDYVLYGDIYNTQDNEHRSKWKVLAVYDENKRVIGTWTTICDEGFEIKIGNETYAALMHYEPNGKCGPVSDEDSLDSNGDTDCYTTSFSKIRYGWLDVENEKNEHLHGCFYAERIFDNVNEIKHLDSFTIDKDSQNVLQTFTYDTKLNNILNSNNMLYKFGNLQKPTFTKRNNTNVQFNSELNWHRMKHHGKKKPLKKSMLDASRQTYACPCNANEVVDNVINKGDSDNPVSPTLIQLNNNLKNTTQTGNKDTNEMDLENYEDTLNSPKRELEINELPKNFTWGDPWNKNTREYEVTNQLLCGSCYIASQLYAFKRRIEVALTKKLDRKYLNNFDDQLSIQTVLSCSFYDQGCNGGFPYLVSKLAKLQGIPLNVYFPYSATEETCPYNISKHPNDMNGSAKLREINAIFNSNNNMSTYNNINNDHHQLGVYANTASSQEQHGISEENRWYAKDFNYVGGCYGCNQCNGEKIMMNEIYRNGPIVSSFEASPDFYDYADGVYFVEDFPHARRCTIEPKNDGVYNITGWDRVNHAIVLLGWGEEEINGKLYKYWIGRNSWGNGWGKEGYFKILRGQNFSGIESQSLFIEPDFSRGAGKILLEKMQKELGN

Q: For `CSc1nc(-c2ccccc2)nc(N)c1C(C)=O`, which “% Inhibition @ 10 uM” value is on record?
A: -2.47%

Q: `Cc1cc(C)nc(Nc2n[nH]c(-c3cccc(Cl)c3)n2)n1` was tested. Which “% Inhibition @ 10 uM” value did it give?
A: 1.92%

Q: With `Cc1ccc(-n2nc3c(=O)n(CCCC(=O)NCCc4cccs4)nc(C)c3c2C)cc1` as the molecule, how does the “% Inhibition @ 10 uM” value read?
A: -4.57%

Q: For `CCCCC(=O)N1CCc2cc(OC)c(OC)cc2C1COc1ccc2c(C)cc(=O)oc2c1` (stereo not shown), which “% Inhibition @ 10 uM” value is on record?
A: 2.83%

Q: With `COc1ccccc1C(=O)Nc1ccc2oc(-c3ccccc3C)nc2c1` as the molecule, how does the “% Inhibition @ 10 uM” value read?
A: 2.54%

Q: With `COc1cc(/C=C/c2nc(C#N)c(N(C)Cc3ccccc3)o2)cc(OC)c1OC` as the molecule, how does the “% Inhibition @ 10 uM” value read?
A: 0.895%

Q: With `COc1ccc(Cl)cc1N(CC(=O)Nc1ccc(Cl)cc1)S(C)(=O)=O` as the molecule, how does the “% Inhibition @ 10 uM” value read?
A: -7.09%

Q: `CCOc1ccc2nc(SCc3ccc(OC)cc3)sc2c1` was tested. Which “% Inhibition @ 10 uM” value did it give?
A: 2.8%

Q: Which “% Inhibition @ 10 uM” value does the source give for `CC(O)c1nc2ccccc2n1Cc1ccccc1` (stereo not shown) here?
A: 2%

Q: Which “% Inhibition @ 10 uM” value does the source give for `CC(C)NS(=O)(=O)c1ccc(N2CCN(CCO)CC2)nc1` here?
A: 1.59%

Q: For `CC1CCCCC1NS(=O)(=O)c1ccc(S(=O)(=O)N2CCN(c3ncccn3)CC2)cc1` (stereo not shown), which “% Inhibition @ 10 uM” value is on record?
A: 2.21%

Q: `O=C(O)CCCN1C(=O)c2ccccc2Sc2ncccc21` was tested. Which “% Inhibition @ 10 uM” value did it give?
A: 1.63%

Q: `COc1ccc(-c2c(C)nn3c(N4CCC(C(=O)NC5CCCC5)CC4)cc(C)nc23)cc1OC` was tested. Which “% Inhibition @ 10 uM” value did it give?
A: -3.7%

Q: How did the “% Inhibition @ 10 uM” value turn out when `Cl/C(=C\c1ccccc1)CN1CCN(c2ccccc2Cl)CC1` was run?
A: 3.48%

Q: With `N#C/C(=C\c1cccs1)C(=O)NCc1cccnc1` as the molecule, how does the “% Inhibition @ 10 uM” value read?
A: 14.8%

Q: How did the “% Inhibition @ 10 uM” value turn out when `N#CCNC(=O)[C@H](Cc1ccc(Br)s1)NC(=O)OCc1ccccc1` was run?
A: -4.72%

Q: With `Cc1cc(C)nc(NC(=O)NS(=O)(=O)Nc2ccc(Br)cc2)n1` as the molecule, how does the “% Inhibition @ 10 uM” value read?
A: -0.999%

Q: For `CCOc1ccc(C2C(C(=O)c3ccc(OC)cc3)=C(O)C(=O)N2Cc2cccnc2)cc1OC` (stereo not shown), which “% Inhibition @ 10 uM” value is on record?
A: 3.8%

Q: Which “% Inhibition @ 10 uM” value does the source give for `Cc1ccc(N2C(N)=C(C#N)C(c3ccc(N(C)C)cc3)C3=C2CCCC3=O)cc1` (stereo not shown) here?
A: 4.08%

Q: With `COc1ccc(CN2CN=C(Nc3nc(C)c4ccc(C)cc4n3)NC2)cc1` as the molecule, how does the “% Inhibition @ 10 uM” value read?
A: 2.1%

Q: For `CCOCCCNC(=O)CN1N=C(c2ccccc2)CCC1=O`, which “% Inhibition @ 10 uM” value is on record?
A: 3.79%

Q: Which “% Inhibition @ 10 uM” value does the source give for `CN1CC[C@@]2(O)CCCC[C@@H]2[C@H]1c1cccc(Cl)c1Cl` here?
A: 2.76%

Q: With `CCOc1ccccc1-n1c(S)nnc1-c1cccnc1` as the molecule, how does the “% Inhibition @ 10 uM” value read?
A: -3.21%

Q: `COc1cccc(CN2CCc3c([nH]c4ccccc34)C2)c1` was tested. Which “% Inhibition @ 10 uM” value did it give?
A: 0.847%

Q: How did the “% Inhibition @ 10 uM” value turn out when `CC(=O)c1ccc(OCC(O)CN2CCN(CC(O)COc3ccc(C(C)=O)cc3)CC2)cc1` (stereo not shown) was run?
A: -6.69%

Q: For `CCC(C)NS(=O)(=O)c1ccc(Br)cc1` (stereo not shown), which “% Inhibition @ 10 uM” value is on record?
A: 3.98%

Q: `CC(C)OCCCNS(=O)(=O)c1csc(C(N)=O)c1` was tested. Which “% Inhibition @ 10 uM” value did it give?
A: 1.13%

Q: For `CC(Cc1c[nH]c2ccccc12)NC(=O)c1ccco1` (stereo not shown), which “% Inhibition @ 10 uM” value is on record?
A: 3.16%

Q: With `CCN(CC)CCC(=O)OC1CC2CCC(C1)N2C` (stereo not shown) as the molecule, how does the “% Inhibition @ 10 uM” value read?
A: -2.42%

Q: `CCCCOC(=O)c1c(O)nc(C)c(Cl)c1C` was tested. Which “% Inhibition @ 10 uM” value did it give?
A: 0.503%

Q: How did the “% Inhibition @ 10 uM” value turn out when `CC1Nc2sccc2C(=O)N1c1ccccc1` (stereo not shown) was run?
A: 1.15%

Q: With `CC(CCN1CCN(c2ccc(F)cc2)CC1)c1ccccc1` (stereo not shown) as the molecule, how does the “% Inhibition @ 10 uM” value read?
A: -4.04%

Q: Which “% Inhibition @ 10 uM” value does the source give for `Cc1nn(C)c(C)c1/C=C(/C(=O)C(C)C)n1cncn1` here?
A: 0.00706%

Q: With `CCC(C)N1C(=O)S/C(=C/c2ccc(N(CC)CC)o2)C1=O` (stereo not shown) as the molecule, how does the “% Inhibition @ 10 uM” value read?
A: 3.8%

Q: Which “% Inhibition @ 10 uM” value does the source give for `CC(C)(CNC(=O)c1cccc(F)c1)CNC(=O)c1cccc(F)c1` here?
A: 0.795%

Q: With `COc1ccc(Cl)cc1-n1c(S)nnc1-c1cc2occc2n1C` as the molecule, how does the “% Inhibition @ 10 uM” value read?
A: 1.72%

Q: With `COc1cccc(C2C(C(=O)c3cccs3)=C(O)C(=O)N2CCc2ccccc2)c1` (stereo not shown) as the molecule, how does the “% Inhibition @ 10 uM” value read?
A: 1.27%

Q: For `Cn1cccc1-c1nc2ccccc2n1C`, which “% Inhibition @ 10 uM” value is on record?
A: -0.891%

Q: How did the “% Inhibition @ 10 uM” value turn out when `CCCCNCCP(=O)(O)OCC` was run?
A: 2.41%

Q: With `CCCC(=O)Nc1ccc(S(=O)(=O)N2CCCCCC2)cc1` as the molecule, how does the “% Inhibition @ 10 uM” value read?
A: -2.24%

Q: Which “% Inhibition @ 10 uM” value does the source give for `Cc1cc2c(cc1C)-c1nnc(C(F)(F)F)n1C(C)(C)C2` here?
A: 4.38%

Q: Which “% Inhibition @ 10 uM” value does the source give for `CC1CCN(S(=O)(=O)c2ccc3nc(O)cc(C(=O)NCCN4CCOCC4)c3c2)CC1` here?
A: -0.519%

Q: For `CCOc1ccc2nc(NC(=O)c3cccnc3)sc2c1`, which “% Inhibition @ 10 uM” value is on record?
A: -0.28%

Q: How did the “% Inhibition @ 10 uM” value turn out when `OCCN1CCN(CC#CCC(c2ccccc2)c2ccccc2)CC1` was run?
A: 0.774%

Q: How did the “% Inhibition @ 10 uM” value turn out when `Cc1ccc(S(=O)(=O)NCc2ccc(C(=O)NCCN(Cc3ccccc3)C(C)C)cc2)cc1` was run?
A: -4.53%

Q: For `Cc1ccc(CS(=O)(=O)Cc2ccc(C(=O)NCC3CCCO3)o2)cc1` (stereo not shown), which “% Inhibition @ 10 uM” value is on record?
A: -4.83%

Q: With `O=C(O)CC(NC(=O)c1ccco1)C(=O)O` (stereo not shown) as the molecule, how does the “% Inhibition @ 10 uM” value read?
A: -5.35%

Q: `O=C1NC(c2ccccc2)C(C(=O)c2cccs2)C(O)(C(F)(F)F)N1` (stereo not shown) was tested. Which “% Inhibition @ 10 uM” value did it give?
A: -4.16%

Q: Which “% Inhibition @ 10 uM” value does the source give for `Cc1cccc(CCNC(=O)c2cc3c(O)nc4ccccc4c3n2C)c1` here?
A: 5.21%

Q: How did the “% Inhibition @ 10 uM” value turn out when `CC1=CC(C)(C)N(C(=O)CN2C(=O)c3ccccc3C2=O)c2ccccc21` was run?
A: 0.317%

Q: With `Cc1nccc2nc(O)c(C(=O)NCc3ccc(Cl)cc3)cc12` as the molecule, how does the “% Inhibition @ 10 uM” value read?
A: -2.14%

Q: How did the “% Inhibition @ 10 uM” value turn out when `CCc1cc2c(cc3c(=O)n(CC(=O)N4CC(C)CC(C)C4)nc(CC)n32)s1` (stereo not shown) was run?
A: 4.84%

Q: Which “% Inhibition @ 10 uM” value does the source give for `COc1ccccc1CN1CCN(Cc2c[nH]c3ccccc23)CC1` here?
A: 18.5%

Q: `CC(=O)Nc1ccc(S(=O)(=O)NCC2CCCO2)cc1` (stereo not shown) was tested. Which “% Inhibition @ 10 uM” value did it give?
A: -3.97%

Q: For `Cc1ccsc1C1CC(=O)NC(SCC(=O)Nc2ccc(Br)cc2)=C1C#N` (stereo not shown), which “% Inhibition @ 10 uM” value is on record?
A: 0.673%

Q: With `COc1ccccc1CNC(=O)c1cnn2c(C(F)F)cc(-c3ccc(C)cc3)nc12` as the molecule, how does the “% Inhibition @ 10 uM” value read?
A: 2.22%

Q: Which “% Inhibition @ 10 uM” value does the source give for `COc1ccc(C(=O)Nc2nc(-c3nnn(-c4cc(Cl)ccc4OC)c3C)ns2)cc1` here?
A: 6.57%

Q: How did the “% Inhibition @ 10 uM” value turn out when `CC(NC(=O)CCC(=O)Nc1ccccc1O)c1ccccc1` (stereo not shown) was run?
A: -3.25%

Q: How did the “% Inhibition @ 10 uM” value turn out when `CCCC1CCC(c2nc(-c3ccc(OC(F)F)cc3)no2)CC1` (stereo not shown) was run?
A: -0.693%

Q: With `CCOc1ccccc1NC(=O)CSCC(=O)Nc1ccc(C)cc1` as the molecule, how does the “% Inhibition @ 10 uM” value read?
A: -1.61%

Q: With `COc1ccc(/C=C2\CCCC(C(=O)C(F)(F)F)=C2O)cc1` as the molecule, how does the “% Inhibition @ 10 uM” value read?
A: -0.169%

Q: How did the “% Inhibition @ 10 uM” value turn out when `Cc1ccc(-c2cc(C(=O)Nc3ccccc3F)c3ccccc3n2)o1` was run?
A: -6.59%

Q: With `O=C(N[C@@H](CCc1ccccc1)C(=O)c1nc2ccccc2o1)[C@H](CS(=O)(=O)Cc1ccccc1Cl)NC(=O)N1CCOCC1` as the molecule, how does the “% Inhibition @ 10 uM” value read?
A: -0.214%

Q: Which “% Inhibition @ 10 uM” value does the source give for `COc1ccc2[nH]c(C)c(CCNCc3cccc(OC)c3OC)c2c1` here?
A: -7.5%

Source: article PMC6919601, “Identification of Plasmodium dipeptidyl aminopeptidase allosteric inhibitors by high throughput screening” (PLoS ONE, 2019)
